Experimental data as given in PubChem BioAssay AID488969 (Vanderbilt High Throughput Screening Facility, 2010).
Whole data set: some 110,000 compounds, median “z-score” near -0.1, cut for the highest 2% near 2. The list shows a part of the results. Active and inactive are the calls of the source.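 How the source made its calls: active means z-score in the third read window above 3 or below -3; inactive means the rest.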

Biological target: Metabotropic glutamate receptor 8 (Rattus norvegicus) (UniProt P70579)
Test: rat mGluR8 modulators via GIRK flux, primary screen, cell-based, thallium flux, HTS (AID 488969)
Conditions: HEK293 rat mGluR8, GIRK (G protein-gated inwardly rectifying potassium channel) thallium flux, FluoZin2; at 10 µM; stronger effect = higher value; submaximal glutamate (EC20) added with thallium

Sequence of UniProt P70579 (P70579 whole entry, looked up): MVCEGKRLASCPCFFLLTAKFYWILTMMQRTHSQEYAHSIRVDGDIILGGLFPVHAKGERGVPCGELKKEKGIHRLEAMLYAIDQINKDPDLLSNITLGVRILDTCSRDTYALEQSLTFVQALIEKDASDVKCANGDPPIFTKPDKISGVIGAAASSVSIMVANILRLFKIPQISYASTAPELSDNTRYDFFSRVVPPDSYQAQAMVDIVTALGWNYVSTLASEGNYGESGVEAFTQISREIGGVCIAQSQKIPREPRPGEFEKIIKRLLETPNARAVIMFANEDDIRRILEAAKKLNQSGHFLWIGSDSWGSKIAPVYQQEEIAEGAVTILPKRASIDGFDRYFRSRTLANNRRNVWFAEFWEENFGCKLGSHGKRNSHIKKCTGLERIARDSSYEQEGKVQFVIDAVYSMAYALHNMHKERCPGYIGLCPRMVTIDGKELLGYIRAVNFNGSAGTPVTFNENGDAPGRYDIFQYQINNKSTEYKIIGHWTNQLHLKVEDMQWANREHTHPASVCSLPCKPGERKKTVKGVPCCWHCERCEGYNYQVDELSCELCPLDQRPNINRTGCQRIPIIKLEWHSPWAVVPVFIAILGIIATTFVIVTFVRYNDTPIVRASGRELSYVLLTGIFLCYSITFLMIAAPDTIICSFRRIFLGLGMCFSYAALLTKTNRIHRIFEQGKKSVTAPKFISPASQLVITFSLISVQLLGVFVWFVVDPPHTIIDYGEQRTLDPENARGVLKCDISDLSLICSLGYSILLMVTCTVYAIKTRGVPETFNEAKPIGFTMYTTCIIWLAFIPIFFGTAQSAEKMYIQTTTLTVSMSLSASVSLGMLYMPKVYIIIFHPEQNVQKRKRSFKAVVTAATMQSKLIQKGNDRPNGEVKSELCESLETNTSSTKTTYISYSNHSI

| SMILES | z-score |
| --- | --- |
| CC(C)n1c(SC2CCOC2=O)nc2ccccc21 (configuration not stated) | -1.44 |
| Cc1ccc(OCC(=O)NNC(=O)c2cccnc2)cc1 | 0.0457 |
| O=C1CCCc2c1[nH]c1ccccc21 | 0.864 |
| C=CCN1C(=O)/C(=N/n2cnnc2)c2ccccc21 | -0.415 |
| Cc1ccc(NC(=O)c2ccc(Nc3c([N+](=O)[O-])cc([N+](=O)[O-])cc3[N+](=O)[O-])cc2)cc1 | -0.158 |
| CCn1c(SCC(=O)NCc2ccc3c(c2)OCO3)nnc1-c1c[nH]c2ccccc12 | 0.897 |
| COc1ccc(N2CCN(CCCn3c(=S)[nH]c4ncccc4c3=O)CC2)cc1 | 1.62 |
| CN(C)CCCOC(=O)CCc1ccccc1 | 1.03 |
| Cc1ccc(N(Cc2ccc(C(=O)NN=C3CCN(C)CC3)cc2)S(C)(=O)=O)cc1C | 0.0756 |
| CC(=O)Nc1ccc(-n2c(C)nc(=O)c(-c3ccccc3)c2C)cc1 | -0.224 |
| O=C(c1ccc(Cl)c(Cl)c1)c1cc(-c2ccccn2)c(N2CCOCC2)s1 | -0.0956 |
| CCC(=O)c1cn(CC(=O)NCc2cccnc2)c2ccccc12 | -0.0962 |
| COc1ccccc1NC(=O)CNc1ccc(F)c(Cl)c1 | -0.632 |
| Cc1cccc2c1NC(C)CC2C (configuration not stated) | -0.214 |
| CCN1CCCC1CNC1=NCCCCC1 (configuration not stated) | -0.206 |
| CC(=O)Oc1ccc2c(c1)Oc1cc(OC(C)=O)ccc1C21OC(=O)c2ccccc21 | -0.947 |
| Cc1ccc2c(CC(=O)OCc3csc(C)n3)coc2c1 | 0.595 |
| Cc1cc(Cl)c(S(=O)(=O)NC(C(=O)O)c2ccccc2)cc1OCC(N)=O (configuration not stated) | -1.26 |
| CCOC(=O)c1c(C)oc2c(CN3CCN(C)CC3)c(Br)c(OC)c(O)c12 | -0.824 |
| O=C(Nc1cccc2nsnc12)C1CC(=O)N(c2ccccc2)C1 (configuration not stated) | 0.207 |
| CC1CCC(n2c(=S)[nH]c3ccccc3c2=O)CC1 (configuration not stated) | active: 8.55 |
| O=C(COc1ccc(Cl)cc1)Nc1ccccc1N1CCOCC1 | 0.0635 |
| CC1CCN(c2nnc(-c3cccs3)c3ccccc23)CC1 | -0.286 |

| SMILES | z-score |
| --- | --- |
| O=C(COC(=O)CCC(=O)c1cccs1)Nc1ncc(Cl)cc1Cl | -0.28 |
| C/C(=N\NC(=O)c1ccc(Cl)c(Cl)c1)c1cccc(NC(=O)C(C)C)c1 | 0.0284 |
| CCN(CC)c1ccc(C=Nc2ccc(N(C)C)cc2)c(O)c1 | 0.0964 |
| O=C(/C=C/c1ccccc1Cl)NCCc1ccc(F)cc1 | 0.976 |
| CN(CCCC(=O)Nc1nccs1)S(=O)(=O)c1ccc(Cl)cc1 | 1.43 |
| CC(=O)C(Cc1cnc(Cl)s1)(Cc1cnc(Cl)s1)C(C)=O | 0.0841 |
| COc1cccc(NC(=O)COc2c(F)c(F)c(C(F)(F)F)c(F)c2F)c1 | 1.2 |
| COc1cc(OC)cc(C(=O)Oc2ccc(/C=N/Nc3nc4ccccc4s3)cc2OC)c1 | -0.292 |
| CC(=O)NC1(c2nnnn2CCOC(=O)Nc2ccc(Cl)cc2)CCCCC1 | 0.0804 |
| CC(C)C(=O)Nc1ccc(C(=O)NN2C(=O)c3ccccc3C2=O)cc1 | 0.139 |
| Cc1cccc(-c2noc(CN(C)S(=O)(=O)c3cc(Cl)ccc3Cl)n2)c1 | 0.188 |
| Cc1ccc(C(=O)N/C(=C\c2ccco2)C(=O)NCC2CCCO2)cc1C (configuration not stated) | 0.00669 |
| O=C(CSc1nncs1)NCc1ccc2c(c1)OCO2 | -0.652 |
| CC(=O)Nc1ccc(S(=O)(=O)NC(CC(=O)O)c2ccc(OC(C)C)cc2)cc1 (configuration not stated) | -0.173 |
| CC(C)COc1nc2ccccc2c(=O)n1OCC(=O)O | -0.148 |
| CC(C)(C)NC(=O)c1nc2ccccc2s1 | 0.283 |
| CC(OC(=O)c1cccc(S(=O)(=O)Nc2ccccc2F)c1)C(=O)NCc1ccc2c(c1)OCO2 (configuration not stated) | 0.274 |
| COc1ccc(S(=O)(=O)Cc2ccc(C(=O)N3CCN(C4CCCCC4)CC3)o2)cc1 | -0.503 |
| N#C/C(=C\C=C\c1ccccc1[N+](=O)[O-])c1nc(-c2ccc3c(c2)OCO3)cs1 | 0.0159 |
| COc1cc(/C=N/NC(=O)c2cccnc2)ccc1OCC(=O)Nc1ccc(C)cc1 | -0.0754 |
| CCCCC(=O)Nc1ccc(Br)cn1 | 0.43 |
| CC1(C)Nc2ccccc2N(CCC(=O)N2CCOCC2)C1=O | 1.22 |
| COc1ccc2nc(SCC(=O)Nc3ccccc3C)[nH]c2c1 | -0.112 |

| SMILES | z-score |
| --- | --- |
| Clc1cccc(Cl)c1CSc1nnc2ccccn12 | 0.157 |
| CCc1c(C)sc2nc(SCC(=O)Nc3cc(C)on3)n(CCOC)c(=O)c12 | 0.0832 |
| C/C(=N\NC(=O)c1c(Br)c(C)nn1C)c1ccc(NC(=O)C(C)Oc2ccc(Cl)cc2C)cc1 (configuration not stated) | 0.0196 |
| O=C(CSc1nnc(-c2cccs2)n1-c1ccccc1)N1CCCc2ccccc21 | -0.111 |
| COc1ccc(N2CCN(C(=O)CSc3nnc4n3C(C)(C)Cc3ccccc3-4)CC2)cc1 | -0.642 |
| CCNc1nc2[nH]c(=O)c3c(c2s1)OC(N)=C(C#N)C3c1ccc(C)cc1 (configuration not stated) | -0.444 |
| CCCCN(CC)C(=O)Cc1ccc(Br)cc1 | -0.261 |
| CN1C(=O)CC(N2CCC(c3nc4ccccc4s3)CC2)C1=O (configuration not stated) | 0.317 |
| CN(C)c1nc(N)nc(-c2nc3ccccc3s2)n1 | 0.172 |
| C=CCn1c(COc2cccc(C)c2)nnc1SCC(=O)NC(=O)NCc1ccco1 | 0.113 |
| Cc1ccc2c(c1)C(c1ccccc1)N(C(=O)c1ccc(S(=O)(=O)N3CCOCC3)cc1)CC(=O)N2 (configuration not stated) | -0.129 |
| Cc1ccccc1NC(=O)/C(C#N)=C\c1ccsc1 | -0.125 |
| CC(C)C(NC(=O)c1ccc(Cl)cc1)C(=O)NC1=NCCS1 (configuration not stated) | 0.815 |
| COCc1nnc(NS(=O)(=O)c2ccccc2)s1 | -0.0971 |
| O=C(CN1C(=O)C2CC=CCC2C1=O)Nc1nnc(SCc2c(Cl)cccc2Cl)s1 (configuration not stated) | -0.215 |
| CC(=O)Nc1ccc(Sc2ncccc2C(=O)Nc2ccc(F)cc2)cn1 | 0.448 |
| COc1ccc(OC)c2c1C(=O)c1ccccc1C2=O | -0.311 |
| CC12CC(c3ccccc3O1)N(C(=O)c1ccco1)C(=S)N2c1ccc(F)cc1 (configuration not stated) | -0.812 |
| CCOC(=O)c1nn(-c2ccc(OC)cc2)c(=O)c2c(N)scc12 | -0.263 |
| COc1ccc(CSc2nnc(C)n2N)cc1Br | 0.211 |
| O=c1c2ccc([N+](=O)[O-])c3cccc(c32)c2nc3ccccc3n12 | 0.692 |
| CCOC(=O)Cc1csc(NC(=O)CCCCCN2C(=O)c3ccccc3C2=O)n1 | -0.227 |
| CCOC(=O)C1CCCN(Cc2c(F)cccc2Cl)C1 (configuration not stated) | 0.0588 |

| SMILES | z-score |
| --- | --- |
| O=C(Nc1ccc2nc(-c3ccco3)[nH]c2c1)c1cccs1 | -0.636 |
| c1ccc(-c2nn3c(Cn4cnc5ccccc54)nnc3s2)cc1 | -0.821 |
| CCCCS(=O)(=O)Nc1ccc(Cc2ccncc2)cc1 | 0.0131 |
| C/C(Cl)=C/Cn1c(N2CCCC2)nc2c1c(=O)n(C)c(=O)n2C | -0.4 |
| CCN1C(=O)CC(N2CCOCC2)C1=O (configuration not stated) | -0.403 |
| C/C(=N\NC(=O)c1cccc(S(=O)(=O)Nc2ccccc2Cl)c1)c1ccc(-n2ccnc2)cc1 | -0.494 |
| CCOC(=O)c1ccc(NC(=O)N(CC)CC)cc1 | 0.549 |
| CSc1cc(C)n(-c2ccccc2C)c(=S)c1C(C)=O | -0.00956 |
| COCC(C)NC(=O)CSc1nc(-c2ccccc2)c(-c2ccccc2)o1 (configuration not stated) | -0.279 |
| Oc1c(C(c2cccs2)N2CCN(c3ccccc3)CC2)ccc2cccnc12 (configuration not stated) | 0.313 |
| Cc1cc(C(=O)OCC(=O)NC(C)(C)C)c2ccccc2n1 | -0.284 |
| O=C1OCC2=C1C(c1ccc(F)cc1)Sc1ccccc1N2 (configuration not stated) | -0.263 |
| O=C(c1ccccc1Oc1ccccc1)N1CCN(c2ccccc2F)CC1 | 0.234 |
| COCCNC(=O)c1cc(-c2cccs2)on1 | 1.01 |
| CCOc1ccc(CNC(=S)N/N=C\c2ccc([N+](=O)[O-])cc2)cc1 | -0.0226 |
| Cc1no[n+]([O-])c1COc1ccccc1/C=C1\NC(=S)NC1=O | -1.01 |
| Cc1ccc(Nc2nnc(SCC(=O)Nc3ncc(C(F)(F)F)cc3Cl)s2)cc1 | -0.266 |
| COc1ccc(-c2cc(C(=O)NCCCn3ccnc3)no2)cc1OC | -1.29 |
| COCc1ccc(O)c2ncccc12 | -0.0472 |
| CNc1nc(C)c(C(=O)c2ccc(Cl)cc2)s1 | -0.0829 |
| O=c1nc2n(c3c4c(sc13)CCC4)CCC2 | 0.00701 |
| Cc1cc(NC(=O)CCCC(=O)Nc2ccc(F)cc2)no1 | -0.204 |
| FC(F)(F)c1cccc(N2CCN(C(=S)NC3CCCCC3)CC2)c1 | -0.131 |

| SMILES | z-score |
| --- | --- |
| COc1ccccc1CNC(=O)C(CC(C)C)NC(=O)C1CCC(C)CC1 (configuration not stated) | -0.998 |
| CN(C)CCN(C(=O)c1cccc(Cl)c1)c1nc2c(Cl)cccc2s1 | -0.0906 |
| COc1ccc(S(=O)(=O)Nc2ccccc2C)cc1 | 0.0937 |
| COc1ccc(Nc2nc(-c3ccccc3)c3ccccc3n2)cc1 | -2.27 |
| COc1ccc(CCNC(=O)c2sc3cc(C)ccc3c2Cl)cc1 | 0.196 |
| O=C1c2ccccc2C(=O)c2c(NCc3cccnc3)cccc21 | 0.309 |
| Cc1cc2c(c(=O)n1CCc1ccccc1)C(c1ccco1)C(C#N)=C(N)O2 (configuration not stated) | -0.0817 |
| CCOc1ccc(N2C(=O)c3ccc(C(=O)OCc4c(C)noc4C)cc3C2=O)cc1 | 0.255 |
| COc1ccc(CNC(=O)Cn2nc(C(F)(F)F)c3c2CCC3)cc1 | 0.215 |
| Cn1cccc1/C=N/n1c(-c2ccccc2)n[nH]c1=S | -0.0516 |
| O=C(CN1CCN(c2ccccc2)CC1)Nc1ccc(-n2cnnn2)cc1 | 0.659 |
| Cc1ccc(Oc2nc3c(c(=O)n(Cc4ccccc4F)c(=O)n3C)n2C)cc1 | -0.729 |
| Cc1cccc(N2CCN(C(=O)COc3cccc4c3OC(C)(C)C4)CC2)c1C | -0.436 |
| COc1ccccc1/C=C\C=N\n1c(C2CCCCC2)n[nH]c1=S | 0.31 |
| CCc1ccc(NC(=O)C2C3C=CC(C4CC34)C2C(=O)O)cc1 (configuration not stated) | -0.414 |
| Cc1occc1-c1nnc(SCC(=O)N2CCc3ccccc32)o1 | 0.216 |
| COc1ccccc1CN(C)C(=O)C1COc2ccccc2O1 (configuration not stated) | -0.589 |
| CN1CCN(C(=O)C(C(=O)c2ccc(F)cc2)n2ccccc2=O)CC1 (configuration not stated) | 0.934 |
| COc1ccc(Cl)cc1N(CC(=O)Nc1ccccc1SC)S(C)(=O)=O | 0.203 |
| Cc1ccc2[nH]c(=O)c(CN(CC3CCCO3)C(=S)NCc3ccco3)cc2c1 (configuration not stated) | -0.397 |
